The values that follow come from PubChem BioAssay (NCI).

The structures appear in SMILES notation.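 Exposure lasted 48 hours, with cells grown in 96-well plates and compounds tested at five concentrations. Abbreviation: GI50, concentration required for 50% inhibition of growth. At the TGI there is no net growth.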

The test concerns NCI-H322M lung. The test is described as follows: growth of human tumour cells (NCI), 48 h.

`CC(=O)NS(=O)(=O)c1ccc(NC(=O)COC(=O)c2cccc3c(=O)c4ccccc4[nH]c23)cc1`: the TGI is above 100 µM.
On the same count and under the same terms, the value for `O=C(O)/C=C(/CC(=O)O)C(=O)O` was 64.8 µM.
`O=C(c1ccccc1Nc1ccnc(C(F)(F)F)c1)N1CCN(c2cccc(Cl)c2)CC1`: the GI50 is 38.2 µM and the TGI is above 100 µM.
`CN(CCc1ccc(Cl)c(Cl)c1)[C@H]1CCCC[C@H]1N1CCCC1`: the TGI is above 100 µM.
For the compound `COc1ccc(N2CCN(C(=O)c3ccccc3Nc3ccnc(C(F)(F)F)c3)CC2)cc1`, the GI50 is above 100 µM and the TGI is above 100 µM.
As to `O=C(NCc1cccnc1)/C(=C\c1ccc(Br)cc1)S(=O)(=O)c1ccccc1`, the GI50 was 1.29 µM and the TGI was 2.62 µM.
Taken in the same sequence, the figures for `Cc1ccc2c(c1)C(=O)c1c-2n(CCCN)c(=O)c2cc([N+](=O)[O-])ccc12` were 0.598 µM and 1.34 µM.
Taken in the same sequence, the figures for `CC(=O)OCC1OC(OC2C(COC(C)=O)OC(OCCC[S-])C(OC(C)=O)C2OC(C)=O)C(OC(C)=O)C(OC(C)=O)C1OC(C)=O.[Au+].c1ccc(CN2[CH-]N(Cc3ccccc3)C(c3ccccc3)=C2c2ccccc2)cc1` (stereo not drawn) were 3.79 µM and 17 µM.
